Measurements as given in patent publication US7002001.

Assays:
[1] = target: wild-type human C3 (expressed from the PC3 coding sequence)
[2] = target: RY-1 mutant C3 (R1427Q, K1431D, E1433Q)
[3] = target: mutant C3M-26 (Arg1303->Gln, Arg1320->Gln)
[4] = target: E1Q2 mutant C3 (Arg1303 changed to Glu, plus Arg1320 changed to Gln)
[5] = target: mutant C3M-I23 (Arg1303->Gln)
Sequence of mutant C3M-I23 (Arg1303->Gln) (chain, as listed by the source, stated change not applied, chain 1 of 2): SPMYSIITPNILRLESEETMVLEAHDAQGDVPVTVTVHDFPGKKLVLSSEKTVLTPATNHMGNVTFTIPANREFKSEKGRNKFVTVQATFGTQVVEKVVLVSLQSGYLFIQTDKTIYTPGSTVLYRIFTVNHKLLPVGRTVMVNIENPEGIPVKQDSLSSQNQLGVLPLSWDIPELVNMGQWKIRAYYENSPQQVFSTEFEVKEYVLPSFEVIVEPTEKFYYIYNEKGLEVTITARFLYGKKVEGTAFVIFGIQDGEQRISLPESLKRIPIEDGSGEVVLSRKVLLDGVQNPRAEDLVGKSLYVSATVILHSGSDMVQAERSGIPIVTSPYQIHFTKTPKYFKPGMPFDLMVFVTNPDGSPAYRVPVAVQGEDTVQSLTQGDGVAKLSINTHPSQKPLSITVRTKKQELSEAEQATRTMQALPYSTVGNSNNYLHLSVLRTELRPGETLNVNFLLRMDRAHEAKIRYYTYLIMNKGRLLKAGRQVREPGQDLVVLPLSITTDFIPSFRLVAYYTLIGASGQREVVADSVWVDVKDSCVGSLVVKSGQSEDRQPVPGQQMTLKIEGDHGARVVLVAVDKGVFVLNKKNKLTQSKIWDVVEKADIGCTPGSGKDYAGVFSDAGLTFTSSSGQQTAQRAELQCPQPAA
Sequence of mutant C3M-I23 (Arg1303->Gln) (chain, as listed by the source, stated change not applied, chain 2 of 2): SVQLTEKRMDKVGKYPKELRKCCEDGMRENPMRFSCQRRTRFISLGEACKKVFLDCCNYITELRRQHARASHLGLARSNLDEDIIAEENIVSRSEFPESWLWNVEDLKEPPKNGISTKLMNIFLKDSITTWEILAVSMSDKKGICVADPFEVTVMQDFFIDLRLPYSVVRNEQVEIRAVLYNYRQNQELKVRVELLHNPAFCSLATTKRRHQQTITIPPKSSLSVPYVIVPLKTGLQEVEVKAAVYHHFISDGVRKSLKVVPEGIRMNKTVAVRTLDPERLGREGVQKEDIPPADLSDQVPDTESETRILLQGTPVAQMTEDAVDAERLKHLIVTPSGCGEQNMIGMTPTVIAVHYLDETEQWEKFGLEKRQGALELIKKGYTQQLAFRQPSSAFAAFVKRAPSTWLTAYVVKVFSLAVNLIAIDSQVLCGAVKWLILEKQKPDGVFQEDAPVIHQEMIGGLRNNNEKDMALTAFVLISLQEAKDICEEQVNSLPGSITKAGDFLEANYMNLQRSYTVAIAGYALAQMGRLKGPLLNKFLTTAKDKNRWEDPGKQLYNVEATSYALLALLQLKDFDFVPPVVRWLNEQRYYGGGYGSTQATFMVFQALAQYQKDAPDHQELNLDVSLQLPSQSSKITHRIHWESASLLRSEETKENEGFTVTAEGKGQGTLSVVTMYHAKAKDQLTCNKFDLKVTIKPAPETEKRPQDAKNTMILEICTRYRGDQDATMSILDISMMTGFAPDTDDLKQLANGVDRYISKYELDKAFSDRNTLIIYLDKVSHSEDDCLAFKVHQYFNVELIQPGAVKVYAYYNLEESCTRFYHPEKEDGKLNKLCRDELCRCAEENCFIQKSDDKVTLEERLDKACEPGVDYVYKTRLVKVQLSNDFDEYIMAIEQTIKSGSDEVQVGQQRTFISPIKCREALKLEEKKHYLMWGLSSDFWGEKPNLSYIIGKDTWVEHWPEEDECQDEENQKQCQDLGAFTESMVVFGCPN

Sequence of wild-type human C3 (expressed from the PC3 coding sequence) (chain, as listed by the source, chain 1 of 2): as the sequence (chain, as listed by the source, stated change not applied, chain 1 of 2) above
Sequence of wild-type human C3 (expressed from the PC3 coding sequence) (chain, as listed by the source, chain 2 of 2): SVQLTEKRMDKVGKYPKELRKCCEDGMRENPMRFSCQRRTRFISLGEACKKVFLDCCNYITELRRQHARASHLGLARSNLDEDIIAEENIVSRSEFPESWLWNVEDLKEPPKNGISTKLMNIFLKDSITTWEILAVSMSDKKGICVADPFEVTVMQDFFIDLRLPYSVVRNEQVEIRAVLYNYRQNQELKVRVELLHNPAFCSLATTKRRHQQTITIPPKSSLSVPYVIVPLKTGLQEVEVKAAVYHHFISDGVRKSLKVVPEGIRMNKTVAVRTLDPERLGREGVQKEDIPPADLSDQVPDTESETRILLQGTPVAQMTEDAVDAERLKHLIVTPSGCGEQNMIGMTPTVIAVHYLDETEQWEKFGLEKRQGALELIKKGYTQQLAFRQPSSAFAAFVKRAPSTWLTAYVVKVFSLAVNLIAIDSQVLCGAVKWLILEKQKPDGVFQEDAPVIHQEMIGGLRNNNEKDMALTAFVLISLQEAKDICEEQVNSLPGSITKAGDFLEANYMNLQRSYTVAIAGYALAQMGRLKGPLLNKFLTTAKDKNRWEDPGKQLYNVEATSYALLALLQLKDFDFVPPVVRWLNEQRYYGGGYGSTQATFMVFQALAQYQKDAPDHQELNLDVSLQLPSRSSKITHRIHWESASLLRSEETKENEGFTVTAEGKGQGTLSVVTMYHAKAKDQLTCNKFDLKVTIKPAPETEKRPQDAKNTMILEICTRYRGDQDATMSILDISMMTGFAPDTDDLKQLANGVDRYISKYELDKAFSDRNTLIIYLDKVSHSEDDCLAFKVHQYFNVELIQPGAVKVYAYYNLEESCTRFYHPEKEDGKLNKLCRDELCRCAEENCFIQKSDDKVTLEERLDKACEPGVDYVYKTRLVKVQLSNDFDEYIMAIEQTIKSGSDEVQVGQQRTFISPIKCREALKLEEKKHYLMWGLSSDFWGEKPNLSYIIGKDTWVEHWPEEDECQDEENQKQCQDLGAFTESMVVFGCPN
Sequence of E1Q2 mutant C3 (Arg1303 changed to Glu, plus Arg1320 changed to Gln) (chain, as listed by the source mutant, chain 1 of 2): as the sequence (chain, as listed by the source, stated change not applied, chain 1 of 2) above
Sequence of E1Q2 mutant C3 (Arg1303 changed to Glu, plus Arg1320 changed to Gln) (chain, as listed by the source mutant, chain 2 of 2): as the sequence (chain, as listed by the source, chain 2 of 2) above, with R632E, R649Q counted along it
Sequence of RY-1 mutant C3 (R1427Q, K1431D, E1433Q) (chain, as listed by the source R1427Q K1431D E1433Q, chain 1 of 2): as the sequence (chain, as listed by the source, stated change not applied, chain 1 of 2) above
Sequence of RY-1 mutant C3 (R1427Q, K1431D, E1433Q) (chain, as listed by the source R1427Q K1431D E1433Q, chain 2 of 2): as the sequence (chain, as listed by the source, chain 2 of 2) above, with R756Q, K760D, E762Q counted along it
Sequence of mutant C3M-26 (Arg1303->Gln, Arg1320->Gln) (chain, as listed by the source, stated change not applied, chain 1 of 2): as the sequence (chain, as listed by the source, stated change not applied, chain 1 of 2) above
Sequence of mutant C3M-26 (Arg1303->Gln, Arg1320->Gln) (chain, as listed by the source, stated change not applied, chain 2 of 2): as the sequence (chain, as listed by the source, chain 2 of 2) above, with R632Q, R649Q counted along it

B1: factor B (protein)
chain: TPWSLARPQGSCSLEGVEIKGGSFRLLQEGQALEYVCPSGFYPYPVQTRTCRSTGSWSTLKTQDQKTVRKAECRAIHCPRPHDFENGEYWPRSPYYNVSDEISFHCYDGYTLRGSANRTCQVNGRWSGQTAICDNGAGYCSNPGIPIGTRKVGSQYRLEDSVTYHCSRGLTLRGSQRRTCQEGGSWSGTEPSCQDSFMYDTPQEVAEAFLSSLTETIEGVDAEDGHGPGEQQKRKIVLDPSGSMNIYLVLDGSDSIGASNFTGAKKCLVNLIEKVASYGVKPRYGLVTYATYPKIWVKVSEADSSNADWVTKQLNEINYEDHKLKSGTNTKKALQAVYSMMSWPDDVPPEGWNRTRHVIILMTDGLHNMGGDPITVIDEIRDLLYIGKDRKNPREDYLDVYVFGVGPLVNQVNINALASKKDNEQHVFKVKDMENLEDVFYQMIDESQSLSLCGMVWEHRKGTDYHKQPWQAKISVIRPSKGHESCMGAVVSEYFVLTAAHCFTVDDKEHSIKVSVGGEKRDLEIEVVLFHPNYNINGKKEAGIPEFYDYDVALIKLKNKLKYGQTIRPICLPCTEGTTRALRLPPTTTCQQQKEELLPAQDIKALFVSEEEKKLTRKEVYIKNGDKKGSCERDAQYAPGYDKVKDISEVVTPRFLCTGGVSPYADPNTCRGDSGGPLIVHKRSRFIQVGVISWGVVDVCKNQKRQKQVPAHARDFHINLFQVLPWLKEKLQDEDLGFL
cleavage of 125I-labelled factor B by factor D in the presence of C3i (SDS-PAGE, autoradiography) [1]: distinct cleavage of factor B occurs even at a 1/125 dilution of the wild-type C3 (C3i)
degree of factor B cleavage (125I-factor B in normal human serum, 1 h 37° C., background subtracted); 1/5 Wild-type [1]: 2.74%
degree of factor B cleavage (125I-factor B in normal human serum, 1 h 37° C., background subtracted); 1/25 Wild-type [1]: 1.49%
cleavage of 125I-labelled factor B by factor D in the presence of C3i (SDS-PAGE, autoradiography) [2]: no significant cleavage was observed in the presence of the mutant C3, even undiluted
degree of factor B cleavage (125I-factor B in normal human serum, 1 h 37° C., background subtracted) [3]: 7.41%
degree of factor B cleavage (125I-factor B in normal human serum, 1 h 37° C., background subtracted) [4]: 6.42%
degree of factor B cleavage (125I-factor B in normal human serum, 1 h 37° C., background subtracted) [5]: 6.19%
